Experimental data published in the supplement of paper PMC9446081.
Screen size: about 39,000 compounds; about 220 (0.56%) showed activity. Some of the results follow.

Tested on: Escherichia coli K-12 BW25113
Assay: relative growth (OD600 normalised to plate interquartile mean) (fraction); higher = less growth inhibition, active = 0.2 or less
Details: 50 µM; LB; incubation time: overnight (16-24 h)
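Further: static incubation at 37 °C against the wild-type strain, values averaged over two biological replicates.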

| Compound | relative growth |
| --- | --- |
| C[C@H](CO)N1C[C@H](C)[C@@H](CN(C)CC2CCCCC2)OCCCC[C@H](C)Oc2ccc(N(C)C)cc2C1=O | inactive: 0.999 |
| CCNC(=O)C[C@H]1C=C[C@H](NC(=O)C2CCOCC2)[C@@H](CO)O1 | inactive: 1 |
| C[C@H](CO)N1C[C@H](C)[C@H](CN(C)C(=O)CN(C)C)Oc2cc(-c3cncnc3)ccc2S1(=O)=O | inactive: 0.986 |
| C[C@@H]1CN([C@H](C)CO)C(=O)c2cccc(NC(=O)c3ccc(-c4nccs4)cc3)c2O[C@@H]1CN(C)Cc1ccc(C(=O)O)cc1 | inactive: 1 |
| O=C(CCO[C@@H]1O[C@H](CO)[C@@H](O)[C@H](O)[C@H]1O)c1ccc(O)cc1 | inactive: 0.993 |
| OC[C@H]1O[C@@H](O)[C@H](O)[C@@H](O)[C@H]1O | inactive: 1.05 |
| C[C@@H]1CCCCO[C@H](CN(C)C(=O)NC2CCCCC2)[C@H](C)CN([C@@H](C)CO)C(=O)c2cc(NC(=O)c3ccccc3)ccc2O1 | inactive: 1.01 |
| C[C@H](CO)N1C[C@H](C)[C@@H](CN(C)S(=O)(=O)c2ccccc2)Oc2ccc(NC(=O)Cn3cnnn3)cc2CC1=O | inactive: 0.98 |
| CN1CCN(C(=O)C[C@@H]2CC[C@@H]3[C@@H](COc4ccc(NC(=O)C5CCCCC5)cc4C(=O)N3C)O2)CC1 | inactive: 0.989 |
| COc1ccc(S(=O)(=O)N(C)C[C@@H]2OCCCC[C@@H](C)Oc3ccc(NC(=O)Nc4ccccc4)cc3C(=O)N([C@@H](C)CO)C[C@@H]2C)cc1 | inactive: 1.01 |
| COCCOC(=O)N1C(=O)[C@@]2(c3cc(C#CCC(C(=O)OC)C(=O)OC)ccc31)[C@H](C(=O)Nc1nc3ccccc3s1)[C@H]1C(=O)O[C@H](c3ccccc3)[C@H](c3ccccc3)N1[C@@H]2c1ccccc1OCCO | inactive: 1.02 |
| Cc1c(-c2ccc(C(N)=O)c3[nH]c4cc(C(C)(C)O)ccc4c23)cccc1-n1cnc2ccccc2c1=O | inactive: 1.04 |
| COc1ccccc1CN1C(=O)c2ccccc2[C@](Cc2ccccc2I)(C(=O)NC2CC2)[C@@H]1c1ccc(CO)cc1 | inactive: 1.02 |
| C[C@H](CO)N1C[C@H](C)[C@H](CN(C)C(=O)NC2CCCCC2)Oc2c(NC(=O)C3CCOCC3)cccc2C1=O | inactive: 1.01 |
| C[C@@H]1CN([C@@H](C)CO)C(=O)c2cc(NC(=O)Nc3ccc(F)cc3)ccc2O[C@H]1CN(C)S(C)(=O)=O | inactive: 1.03 |
| Cc1noc(C)c1S(=O)(=O)Nc1cccc2c1O[C@@H](CN(C)C(=O)NC1CCCCC1)[C@@H](C)CN([C@H](C)CO)C2=O | inactive: 0.984 |
| CC(C)NC(=O)Nc1cccc2c1O[C@@H](CN(C)C(=O)Nc1ccc3c(c1)OCO3)[C@@H](C)CN([C@@H](C)CO)C2=O | inactive: 0.991 |
| C[C@@H]1CCCCO[C@@H](CN(C)Cc2ccc(Cl)c(Cl)c2)[C@H](C)CN([C@H](C)CO)C(=O)c2cc(NC(=O)Nc3cccc4ccccc34)ccc2O1 | inactive: 1.05 |
| CC(C)NC(=O)N(C)C[C@@H]1Oc2ccc(NC(=O)NC3CCCCC3)cc2C(=O)N([C@@H](C)CO)C[C@@H]1C | inactive: 0.992 |
| CCN(CC)C(=O)C1(c2ccccc2)CC1CN.Cl (stereo unspecified) | inactive: 1 |
| COc1ccc(NC(=O)N(C)C[C@H]2Oc3ccc(NS(C)(=O)=O)cc3C(=O)N([C@H](C)CO)C[C@@H]2C)cc1 | inactive: 0.99 |

| Compound | relative growth |
| --- | --- |
| C[C@@H]1CN([C@@H](C)CO)C(=O)c2cc(NC(=O)CCN3CCOCC3)ccc2O[C@H]1CN(C)S(=O)(=O)c1ccc(Cl)cc1 | inactive: 1.02 |
| COc1ccc(S(=O)(=O)Nc2ccc3c(c2)C(=O)N([C@H](C)CO)C[C@H](C)[C@@H](CN(C)CC2CCCCC2)OCCCC[C@@H](C)O3)cc1 | inactive: 0.972 |
| C[C@H](CO)N1C[C@H](C)[C@@H](CN(C)C(=O)Nc2cccc3ccccc23)OCCCC[C@H](C)Oc2ccc(NS(=O)(=O)c3cccs3)cc2C1=O | inactive: 0.966 |
| C[C@H]1CN([C@@H](C)CO)C(=O)Cc2cc(NC(=O)Nc3ccc4c(c3)OCO4)ccc2O[C@@H]1CN(C)S(C)(=O)=O | inactive: 0.982 |
| Nc1c2c(=O)[nH]c(=O)cc-2[nH]n1-c1ccccc1 | inactive: 0.972 |
| FC(F)(F)c1nnc2n1CCNC2 | inactive: 1.01 |
| CCOP(=O)(CC(=O)O[C@H]1[C@H](OC(=O)Nc2ccccc2-c2ccccc2)[C@H](OC(=O)Nc2ccccc2-c2ccccc2)[C@@H](OC)O[C@@H]1COC(=O)NCCCCCC(=O)NO)OCC | inactive: 0.993 |
| C[C@H](CO)N1C[C@H](C)[C@H](CN(C)S(=O)(=O)c2cccs2)OCCCC[C@H](C)Oc2ccc(NC(=O)c3ccccc3)cc2C1=O | inactive: 1.04 |
| C[C@@H]1CN([C@H](C)CO)C(=O)c2cc(NC(=O)Nc3cccc4ccccc34)ccc2O[C@@H]1CN(C)C(=O)NC1CCCCC1 | inactive: 1 |
| C[C@@H]1CN([C@H](C)CO)C(=O)Cc2cc(NS(=O)(=O)c3cccs3)ccc2O[C@H]1CN(C)S(=O)(=O)c1cccs1 | inactive: 0.991 |
| C[C@H]1CCCCO[C@H](CN(C)Cc2ccc(C(=O)O)cc2)[C@@H](C)CN([C@@H](C)CO)C(=O)c2cc(NC(=O)C3CCCCC3)ccc2O1 | inactive: 0.981 |
| Cc1cccc2c1OCC[C@@H](N)C2=O | inactive: 1.02 |
| O=C(C1=C[C@H](c2csc3ccccc23)C[C@H](OCc2ccc(CO)cc2)O1)N1CCN(Cc2ccccc2)CC1 | inactive: 1 |
| O=C(N[C@H]1CCN(C(=O)c2cc(C(F)(F)F)cc(C(F)(F)F)c2)[C@H](Cc2ccc(Cl)cc2)C1)c1ccnc2ccccc12 | inactive: 1.05 |
| C[C@@H]1CN([C@H](C)CO)S(=O)(=O)c2ccc(C#CCN(C)C)cc2O[C@@H]1CN(C)C(=O)CN(C)C | inactive: 1.02 |
| CC(C)NC(=O)Nc1ccc2c(c1)C(=O)N([C@@H](C)CO)C[C@@H](C)[C@@H](CN(C)C(=O)Nc1ccc(F)cc1)OCCCC[C@@H](C)O2 | inactive: 0.993 |
| CC(C)NC(=O)N[C@H]1CCCCNC1=O | inactive: 0.991 |
| C[C@@H]1CN([C@H](C)CO)C(=O)Cc2cc(NC(=O)C3CC3)ccc2O[C@@H]1CN(C)Cc1ccc2c(c1)OCO2 | inactive: 0.99 |
| CCCC#Cc1cnc2c(c1)C(=O)N([C@@H](C)CO)C[C@H](C)[C@@H](CN(C)C(=O)c1ccc3c(c1)OCO3)O2 | inactive: 1.02 |
| CN(C)CCC=C1c2ccccc2Sc2ccc(Cl)cc21.Cl | inactive: 0.728 |
| CO[C@H]1CN(C)C(=O)c2cc(NS(=O)(=O)CC(F)(F)F)ccc2OC[C@H](C)N(Cc2ccccn2)C[C@H]1C | inactive: 0.977 |

| Compound | relative growth |
| --- | --- |
| CC(=O)N[C@@H]1[C@@H](O)[C@H](O)[C@H](CO)O[C@@H]1O | inactive: 0.978 |
| COc1ccc(-c2cc(C(F)F)nn2-c2ccc(S(N)(=O)=O)cc2)cc1F | inactive: 0.955 |
| CC(C)NC(=O)Nc1ccc2c(c1)CC(=O)N([C@H](C)CO)C[C@@H](C)[C@H](CN(C)C(=O)NC1CCCCC1)O2 | inactive: 1.01 |
| NC(=O)c1cn([C@@H]2O[C@H](CO)[C@@H](O)[C@H]2O)c2ncnc(N)c2c1=O | inactive: 1.03 |
| C[C@H]1CN([C@@H](C)CO)C(=O)c2cc(C#Cc3ccccc3)cnc2O[C@@H]1CN(C)S(=O)(=O)c1ccccc1F | inactive: 1.04 |
| Cc1ccc(S(=O)(=O)N(C)C[C@H]2OCCCC[C@H](C)Oc3ccc(NC(=O)Nc4cccc5ccccc45)cc3C(=O)N([C@@H](C)CO)C[C@@H]2C)cc1 | inactive: 1.04 |
| C[C@@H]1CN([C@@H](C)CO)C(=O)Cc2cc(NS(=O)(=O)c3ccccc3)ccc2O[C@@H]1CN(C)CC1CC1 | inactive: 0.999 |
| C[C@H]1[C@H]([Si](C)(C)F)[C@@H](CCO)O[C@]12C(=O)N(Cc1cccc(N3C(=O)c4ccccc4Oc4ccccc43)c1)c1ccccc12 | inactive: 1.02 |
| C[C@H](CO)N1C[C@H](C)[C@@H](CN(C)Cc2ccc(C(F)(F)F)cc2)Oc2ccc(NC(=O)CCC(F)(F)F)cc2CC1=O | inactive: 0.92 |
| CN1CCc2c(n[nH]c2CNc2ncccn2)C1 | inactive: 1 |
| COC[C@@H]1CN(C(=O)[C@H]2CCCN2C)N1 | inactive: 1.01 |
| COc1ccc(S(=O)(=O)N(C)C[C@@H]2Oc3cc(C#CC4CCCC4)ccc3S(=O)(=O)N([C@H](C)CO)C[C@@H]2C)cc1 | inactive: 1.04 |
| C[C@H](CO)N1C[C@H](C)[C@H](CN(C)C(=O)Nc2cccc3ccccc23)Oc2c(NS(=O)(=O)c3ccccc3)cccc2C1=O | inactive: 0.971 |
| C[C@@H]1CCCCO[C@@H](CN(C)S(=O)(=O)c2ccc(F)cc2)[C@H](C)CN([C@@H](C)CO)C(=O)c2cc(NS(=O)(=O)c3ccc(Cl)cc3)ccc2O1 | inactive: 1.03 |
| C[C@H]1CCCCO[C@@H](CN(C)Cc2ccc(C(F)(F)F)cc2)[C@@H](C)CN([C@@H](C)CO)C(=O)c2cc(NS(=O)(=O)c3ccc(Cl)cc3)ccc2O1 | inactive: 1.05 |
| Cc1ccc(S(=O)(=O)Nc2ccc3c(c2)C(=O)N([C@H](C)CO)C[C@@H](C)[C@H](CN(C)Cc2ccccc2)OCCCC[C@@H](C)O3)cc1 | inactive: 0.976 |
| Cc1ccc(=O)[nH]n1 | inactive: 1.02 |
| COc1ccc(C#Cc2ccc([C@H]3[C@H](CO)N4CCCCN(S(=O)(=O)c5cn(C)cn5)C[C@@H]34)cc2)cc1 | inactive: 0.936 |
| COc1ccc(S(=O)(=O)N(C)C[C@@H]2Oc3ccc(NC(=O)Nc4cccc5ccccc45)cc3C(=O)N([C@H](C)CO)C[C@@H]2C)cc1 | inactive: 1.03 |
